Assay results taken from PubChem BioAssay AID1645882 (National Center for Advancing Translational Sciences (NCATS), 2021).
Several values for one entry are separate records, joined by “and”; a condition that tells them apart may be missing. Identical values can stand only once. In all, about 16,000 compounds went through this assay and about 120 (0.75%) were called active. Roughly 4% stayed inconclusive and do not appear here. The call rests on the fitted dose curve; in most records, active means well fitted inhibition curve with a large enough effect; inconclusive means small, poorly fitted or top-dose-only effect; inactive means no such curve, though single readings can be large or run the other way. The list shows a part of the results. The source holds several records for some structures; these can differ, active in one and inactive in another.

molecular target: Rap guanine nucleotide exchange factor 3 (Homo sapiens) (UniProt O95398); experiment: Validation qHTS for antagonist of cAMP-regulated guanine nucleotide exchange factor 3 (EPAC1); conditions: EPAC1 Rap1B-BODIPY-GDP exchange, fluorescence; series mostly up to 150 µM; activity change, negative = inhibition: at the top concentration; further: nearly all actives have a fitted effect of over 75% in size;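 on activity change, negative = inhibition: plate controls were DMSO for no effect and ATA control for full effect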
Summary of the method: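 EPAC1 (100 nM) mixed with 250 nM RAP1B-BODIPY-GDP and 50 uM GDP; compounds in concentration series, 5 min at room temperature. Fluorescence (ex 480/em 540 nm) read every 5 min for 30 min; normalized to ATA control and DMSO.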
Potency means the concentration at half of the fitted maximal effect.

Sequence of UniProt O95398 (O95398 whole entry, looked up): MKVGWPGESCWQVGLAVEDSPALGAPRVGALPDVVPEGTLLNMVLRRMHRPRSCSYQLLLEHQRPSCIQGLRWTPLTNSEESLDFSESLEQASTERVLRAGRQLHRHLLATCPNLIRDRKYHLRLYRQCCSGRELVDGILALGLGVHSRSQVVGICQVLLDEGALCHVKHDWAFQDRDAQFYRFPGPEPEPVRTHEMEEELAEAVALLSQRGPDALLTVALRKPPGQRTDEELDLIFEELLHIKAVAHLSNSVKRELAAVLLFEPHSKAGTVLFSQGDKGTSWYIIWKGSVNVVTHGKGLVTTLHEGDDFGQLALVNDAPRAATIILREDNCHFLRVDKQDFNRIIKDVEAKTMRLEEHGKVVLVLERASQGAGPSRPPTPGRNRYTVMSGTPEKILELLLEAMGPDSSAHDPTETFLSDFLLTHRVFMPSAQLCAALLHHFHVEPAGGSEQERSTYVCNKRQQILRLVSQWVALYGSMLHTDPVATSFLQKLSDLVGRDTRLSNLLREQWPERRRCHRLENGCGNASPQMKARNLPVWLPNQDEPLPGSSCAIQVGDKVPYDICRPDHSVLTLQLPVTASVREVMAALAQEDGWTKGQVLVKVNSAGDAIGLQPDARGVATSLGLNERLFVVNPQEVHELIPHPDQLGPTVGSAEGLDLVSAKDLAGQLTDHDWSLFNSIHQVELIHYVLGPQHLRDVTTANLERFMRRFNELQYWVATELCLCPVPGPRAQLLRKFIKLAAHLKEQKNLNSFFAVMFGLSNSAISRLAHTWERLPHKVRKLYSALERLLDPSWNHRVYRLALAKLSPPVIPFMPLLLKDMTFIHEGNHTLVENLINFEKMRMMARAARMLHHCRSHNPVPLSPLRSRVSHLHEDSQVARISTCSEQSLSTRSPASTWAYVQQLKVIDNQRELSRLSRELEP

SMILES | activity change, negative = inhibition | Potency
O=C(/C=C/c1ccccc1)OCc1ccccc1 | inactive: -2.35% | 
COc1ccc(-c2nc3cnc(N4CCOCC4)nc3n(-c3ccc(OC)cc3)c2=O)cc1 | inactive: -20.3% | 
O=C(CN1CCN(Cc2ccc3c(c2)OCO3)CC1)N1c2ccccc2Sc2ccccc21 | inactive: -20.4% | 
Nc1ccn([C@@H]2O[C@H](CO)[C@@H](O)[C@H]2O)c(=O)n1 | inactive: -4.45% | 
CN(C)CCC(c1ccccc1)c1ccccn1 (centres undefined) | inactive | 
COc1cccc(-c2ccc3ncnc(N(C)C)c3c2)c1 | inactive: -21.5% | 
C=CC(C1=CC(=O)C(OC)=CC1=O)c1ccc(O)cc1 (centres undefined) | inactive: 10.2% | 
CC1=CCC(C(C)(C)O)CC1 (centres undefined) | inactive: 15.9% | 
COc1ccc(NC(=O)N2CC[C@@]3(CCCN(C(=O)c4ccncc4)C3)C2)cc1 | inactive: 16.2% | 
CNc1nc(-c2ccccc2Cl)nc2ccccc12 | inactive: 0.228% | 
CC(=O)ON(C(C)=O)c1ccc(/C=C2/C=Cc3ccccc32)cc1 | inactive: 1.7% | 
CN(C)C(=O)c1ccc(-c2cc(-n3ccnc3)ncn2)cc1 | inactive: 9.09% | 
C[C@H]1C[C@]2(O[C@@H]2C)C(=O)O[C@@H]2CCN(C)C/C=C(/COC(=O)[C@]1(C)O)C2=O | inactive: 13.5% | 
CCSc1ccc2c(c1)N(CCCN1CCN(C)CC1)c1ccccc1S2 | inactive: 21.8% [at 75.8 µM] | 
O=C(c1csnn1)N1CCC2(CCCN(c3ccccc3)C2)CC1 | inactive: 0.413% | 
Cc1c(O)cccc1C(=O)N[C@@H](CSc1ccccc1)[C@H](O)CN1C[C@H]2CCCC[C@H]2C[C@H]1C(=O)NC(C)(C)C | inactive: -2.53% | 
CCCCCCCCCCCCCCCCO | inactive: 16.5% | 
CO/N=C(\C(=O)N[C@@H]1C(=O)N2C(C(=O)O)=C(CSc3nc(C)c(CC(=O)O)s3)CS[C@H]12)c1csc(N)n1 | inactive: 19.5% | 
CC(=O)Nc1cc(C(=O)N2CCc3c(Cl)cccc3C2)cc2ncn(CCc3ccccn3)c12 | inactive: 4.8% | 
CCN1/C(=C/C(C)=O)Sc2ccc(OC)cc21 | inactive: 7.75% [at 75.8 µM] | 
Cc1noc(C)c1-c1ccc2ncnc(Nc3ccccc3)c2c1 | inactive: 14.8% | 
C[C@H]1c2cccc(O)c2C(O)=C2C(=O)[C@]3(O)C(O)=C(C(N)=O)C(=O)[C@@H](N(C)C)[C@@H]3[C@@H](O)[C@@H]21 | inactive | 
CS(=O)(=O)Nc1cccc(-c2nc(-n3ccnc3)c3ccccc3n2)c1 | inactive: -15% | 
O=S1(=O)[C@H]2C[C@@H]3C=C[C@@]2(CN1Cc1cccc(C(F)(F)F)c1)O3 | inactive: -0.554% | 
CO[C@@H]1[C@@H](OC)[C@H](C)[C@@](O)(CC(=O)O)O[C@H]1[C@H](C)[C@H]1O[C@@]2(CC[C@@](C)([C@H]3CC[C@@](C)([C@@H]4O[C@@H]([C@H]5O[C@](C)(O)[C@H](C)C[C@@H]5C)C[C@@H]4OC4C[C@H](OC)[C@@H](OC)[C@H](C)O4)O3)O2)C[C@H](O)[C@H]1C (some centres undefined) | inactive: 22.9% | 

SMILES | activity change, negative = inhibition | Potency
CN(CC1COCCO1)C(=O)c1cnn(-c2ncc3c(n2)-c2ccccc2CCC3)c1C1CC1 (centres undefined) | inactive: 6.91% | 
COc1ccccc1N1CCN(CC2CN3C(=O)N(C)c4ccccc4C3=N2)CC1 (centres undefined) | inactive: 36.9% | 
C=CCc1ccccc1OCC(O)CNC(C)C (centres undefined) | inactive | 
CC(=O)OC(C)C[N+](C)(C)C (centres undefined) | inactive | 
CCCCOc1ccc(CC(=O)NO)cc1 | inactive | 
CN(C)c1ccc(/C=C2\C(=O)Nc3ccccc32)cc1 | inactive: -9.59% [at 75.8 µM] | 
O=c1c(-c2ccc(F)cc2)nc2cnc(N3CCOCC3)nc2n1Cc1ccc(F)cc1 | inactive: 1.33% | 
CCCCC[C@H](CC(=O)NO)C(=O)N[C@H](C(=O)N1CCC[C@H]1CO)C(C)C | inactive: 5.14% [at 75.8 µM] | 
Cc1nn(C)cc1CN1CCOc2ccc(C(C)(O)COc3ccccc3)cc2C1 (centres undefined) | inactive: 2.73% | 
COc1ccccc1CN1CCOc2ccc(CN3CCC(Oc4cccnc4)CC3)cc2C1 | inactive: 9.49% | 
Cc1ccc(O)c([C@H](CCN(C(C)C)C(C)C)c2ccccc2)c1 | inactive: 11.2% | 
Cc1nc(N=Nc2ccc(S(=O)(=O)O)cc2S(=O)(=O)O)c(COP(=O)(O)O)c(C=O)c1O |  | inactive and active: 12.6 µM
COc1cccc(Cn2c(=O)c(-c3ccc(F)cc3)nc3cnc(N4CCOCC4)nc32)c1 | inactive: -10.1% | 
COc1ccc2[nH]cc(CCNc3ncncc3-c3ccc4c(c3)OCO4)c2c1 | inactive: -3.46% | 
CNCCC(Oc1ccccc1C)c1ccccc1 (centres undefined) | inactive: 13.4% [at 75.8 µM] | 
COCCNc1ccnc(-c2ccccc2CN(C)C)n1 | inactive: 30.5% | 
COc1cccc(Cn2c(=O)c(-c3cccc(F)c3)nc3cncnc32)c1 | inactive: -7.05% | 
COc1cc2c(cc1OC)C1N(CC2)C(=O)CCC12C(=O)CCCC2=O (centres undefined) | inactive: 6.53% | 
CS(=O)(=O)Nc1cccc(-c2nccc(Nc3ccc(F)cc3)n2)c1 | inactive: -19.2% | 
Cc1cc(C)c2c(n1)NCCC2 | inactive: 25% | 
CCCCC1CN(CCNC(=O)c2ccccn2)Cc2ccccc2O1 (centres undefined) | inactive: 5.49% | 
Cc1cccc(CNc2nc(-c3cccnc3)nc3ccccc23)c1 | inactive: 18.7% | 
CCCN1CCC(=O)N([C@H](CSc2ccccc2)Cc2ccccc2)CC1 | inactive: 14.1% | 
COc1ccccc1C1CN(CCNC(=O)c2ccc3c(c2)OCCO3)Cc2ccccc2O1 (centres undefined) | inactive: -11.2% | 
O=C(O)c1cc(=O)c2c(OCC(O)COc3cccc4oc(C(=O)O)cc(=O)c34)cccc2o1 | inactive | 

SMILES | activity change, negative = inhibition | Potency
O=c1c(O)c(-c2ccccc2)oc2cc(O)cc(O)c12 | inactive: 6.31% | 
c1ccc(CNc2ncnc3ccc(-c4ccc5c(c4)OCO5)cc23)cc1 | inactive: -19.8% | 
N=S(=O)(O)Cc1noc2ccccc12 | inactive: 0.453% [at 75.8 µM] | 
Cc1cnc(CNc2nc(-c3ccoc3)nc3ccccc23)cn1 | inactive: 7.6% | 
COc1ccnc(CS(=O)c2nc3cc(OC(F)F)ccc3[nH]2)c1OC (centres undefined) | inactive: 35.8% | 
COc1ccc(/C=C\C(=O)Nc2ccccc2C(=O)O)cc1OC | inactive: 7.89% | 
CC(=O)c1ccc2c(c1)N(CCCN1CCN(CCO)CC1)c1ccccc1S2 | inactive: 22.2% | 
COc1cc2oc(-c3ccccc3)cc(=O)c2cc1O | inactive: 10.9% | 
O=C(Oc1ccccc1)N1CCC2(CC1)CCN(c1ncccn1)CC2 | inactive: 7.72% | 
Cc1c(C(=O)NCC2CC2)sc2ncnc(NCCN3CCCCC3)c12 | inactive: 14.8% | 
COc1cccc(C2(CC(=O)N3CCN(c4ccccc4O)CC3)CC(=O)N(C3CCCC3)C2=O)c1 (centres undefined) | inactive: -0.23% | 
CC(=O)Oc1ccc(/C=C/C(=O)CC2OC(Oc3cc(OC(C)=O)c4c(c3)O[C@@H](c3ccc(OC(C)=O)cc3)CC4=O)C(OC(C)=O)C(OC(C)=O)C2OC(C)=O)cc1 (some centres undefined) | inactive: 10.7% | 
CNC(=O)[C@@H]1C[C@H](Sc2nc3ccccc3[nH]2)CN1Cc1ccccc1C(F)(F)F | inactive: -8.68% | 
COC(=O)C1CCCCN1Cc1ccc2c(c1)CN(Cc1cnn(-c3ccccc3)c1)CCO2 (centres undefined) | inactive: -0.462% | 
O=C1CCc2c(ccc3ccccc23)O1 | inactive | 
COc1ccccc1C1CN(CCNC(=O)C2=CCCC2)Cc2ccccc2O1 (centres undefined) | inactive: -11.4% | 
Cn1c(=O)c2c(ncn2C)n(C)c1=O | inactive | 
Cc1cnc(C)c(-c2ccc(F)c3c2OC(CNC(=O)Cc2c(C)[nH]c4ccccc24)C3)n1 (centres undefined) | inactive: 8.76% | 
CN(C)C(=O)c1ccc(-c2cncnc2NCc2ccccc2)cc1 | inactive: 5.71% | 
COC(=O)C[C@H]1c2cc(F)ccc2S(=O)(=O)N1C1CC1 | inactive: 12.6% | 
O=C1c2ccccc2C(Cc2ccncc2)(Cc2ccncc2)c2ccccc21 | inactive: 11.6% | 
CN1CCCC(CN(C)C(=O)c2cnn(-c3nccc(-c4ccccc4C(F)(F)F)n3)c2C2CC2)C1 (centres undefined) | inactive: 8.77% | 
O=C(c1csnn1)N1CCC[C@@]2(CCN(C(c3ccccc3)c3ccccc3)C2)C1 | inactive: -2.17% | 
O=C(c1cccnc1)C1CCCN(Cc2ccc3c(c2)CN(C(=O)c2cn4ccccc4n2)CCO3)C1 (centres undefined) | inactive: 4.39% | 
CN1C[C@H](C(=O)N[C@]2(C)O[C@@]3(O)[C@H]4CCCN4C(=O)[C@H](Cc4ccccc4)N3C2=O)C[C@H]2c3cccc4[nH]cc(c34)C[C@@H]21 | inactive: -5.34% | 

SMILES | activity change, negative = inhibition | Potency
O=C(/C=C/c1ccccc1)c1ccc(O)cc1O | inactive: -11% | 
Cc1nc2cnc(Oc3cccc(Cl)c3)nc2n(C2CC2)c1=O | inactive: -5.94% | 
CN1CC(=O)N2C(Cc3c([nH]c4ccccc34)[C@H]2c2ccc3c(c2)OCO3)C1=O (some centres undefined) | inactive: 19.7% | 
COc1ccc(CCNC(=O)c2cnn(-c3nccc(-c4ccco4)n3)c2C)cc1 | inactive: 14.1% | 
CCN1CCN(c2cc(-c3ccc(F)cc3)c3c(n2)CCCCCC3)CC1 | inactive: -28.3% | 
CCNc1ncc2nc(CCc3ccccc3)c(=O)n(CCOC)c2n1 | inactive: 14.7% | 
Cc1ncc2c(c1CNC(=O)c1ccc3c(c1)OCO3)CCN(C(=O)c1noc3c1CCCC3)C2 | inactive: 4.86% | 
CN(C)Cc1ccccc1-c1cc(NC2CC2)ncn1 | inactive: 9.23% | 
O=S(=O)(c1ccccc1)N1CCC[C@@]2(CCN(c3cccc(-c4ccccc4)c3)C2)C1 | inactive: 16.6% | 
CC(C)(C)NCC(O)c1ccc(O)c(CO)c1 (centres undefined) | inactive | 
Cc1cccnc1-c1cccc2c1OC(CNC(=O)C(=O)c1ccccc1)C2 (centres undefined) | inactive: -3.31% | 
CCOC(=O)C[C@H]1c2ccccc2S(=O)(=O)N1Cc1cc(OC)c(OC)c(OC)c1 | inactive: 8.27% | 
CN1CCCC(CNC(=O)c2cnn(-c3ncc4c(n3)-c3ccccc3CC4)c2C2CC2)C1 (centres undefined) | inactive: 10.9% | 
CNC1C(O)C(O[C@H]2C(O)[C@@H](OC3OC(CN)=CCC3N)[C@H](N)C[C@@H]2N)OC[C@]1(C)O (some centres undefined) | inactive: 5.95% | 
Cc1nc2cnc(Oc3ccccc3)nc2n(-c2ccccc2)c1=O | inactive: 9.27% | 
O=C(C[n+]1ccccc1Br)c1ccc(-c2ccccc2)cc1 | inactive: 0.0962% | 
COc1cc2c(cc1OC)C(c1c[nH]c3ccccc13)NCC2 (centres undefined) | inactive: 10.7% | 
CCCCC[C@H](O)CC(=O)CCc1ccc(O)c(OC)c1 | inactive | 
N#Cc1cccc(-c2ccc3ncnc(NC4CCNCC4)c3c2)c1 | inactive: -2.51% | 
CCC(=O)N[C@@H]1c2ccccc2C2(CCN(Cc3[nH]c4c(Cl)cccc4c3C)CC2)[C@H]1OC | inactive: 4.26% | 
COc1cc(/C(=C/c2ccccc2)c2ccccc2)c2c(c1)oc1ccccc12 | inactive: 4.36% | 
CCCCCCCC/C=C\CCCCCCCC(=O)O | inactive: 12.9% | 
COC(=O)c1cc(CNC(=O)c2ccc(N(C)C)cc2)cc(NC(=O)c2ccccc2Cl)c1 | inactive: 5.97% | 
O=C(CSc1ccncc1)NCC1Cc2cccc(-c3cncnc3)c2O1 (centres undefined) | inactive: 4.41% | 
